According to PubChem BioAssay (NCI):
Where “and” joins values, the source holds several entries; their conditions need not be identical. Equal entries are not always repeated.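 Growth conditions: 96-well plates. Treatment: test compound, 48 hours, 5 concentrations. Analysis: linear interpolation between bracketing concentrations; unreached endpoints set to highest concentration. GI50: concentration for 50% inhibition of growth. TGI: total growth inhibition.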

System: NCI-H322M lung
Test: NCI tumour cell line growth inhibition, 48 h

`CC(C)CCCC(C)[C@H]1CC[C@H]2[C@@H]3CC[C@H]4C[C@@H](CCC=C(c5cc(Cl)c(O)c(C(=O)O)c5)c5cc(Cl)c(O)c(C(=O)O)c5)CC[C@]4(C)[C@H]3CC[C@]12C` (stereo partly drawn) (tested in a mixture with another compound) showed a TGI greater than 50 µM.
`C=CCCCCCC(O)C(O)C/C=C\C/C=C\CC` (stereo not drawn) showed a TGI greater than 18.8 µM.
`CCOc1ccccc1NC(=O)C1=C(C)NC(C)=C(C(=O)Nc2ccccc2OCC)C1c1ccc(NC(C)=O)cc1` showed a TGI greater than 100 µM.
`CCCCCCCCCC1CC(=O)NCC(=O)NC(C(C)C)C(=O)NC(CC(C)C)C(=O)NC(C)C(=O)NC(C(C)C)C(=O)O1` (stereo not drawn) gave a TGI of 73.5 µM.
`Clc1ccccc1-c1nnc2c(-c3ccccc3)nc3ccccc3n12` was tested, and the TGI was greater than 100 µM.
With `CCOC(=O)C1=NN(c2ccccc2)C2=CC(C)=NN(C)C(=S)N21` the TGI was greater than 100 µM.
In the case of `COc1cccc2c(=O)c3c(sc12)c(NCCN(C)C)nc1ccccc13`, the GI50 is reported as 1600 nM and the TGI is reported as 3.2 µM.
`Cc1cccc2c1C(=O)OC2(C)c1cccc2ccccc12` (stereo not drawn) showed a TGI greater than 100 µM.
Work on `Clc1ccc2c(c1)-c1ccccc1C1=NCCN12` yielded a GI50 of 2090 nM and a TGI of 5.68 µM.
With `O=C(/C=C/c1ccc(C(F)(F)F)cc1)c1ccc(Nc2nc(NCCO)nc(N3CCOCC3)n2)cc1` the GI50 was 2630 nM and the TGI was 10.7 µM.
Molecule `Cc1nn(C(=O)Cc2ccccc2)c2c1C(c1ccccc1[N+](=O)[O-])SC(N)=N2` (stereo not drawn) has a TGI greater than 100 µM.
`CCOC1C=CCCO1` (stereo not drawn) gave a TGI greater than 100 µM.
For `COC(=O)c1cc2oc(/C=C3\SC(=S)N(NC(C)=O)C3=O)cc2n1Cc1ccccc1`, the GI50 was 7740 nM and the TGI was 23.2 µM.
With `C=CCN=C1NC(=O)C(CC(=O)Nc2ccc(C)cc2)S1` (stereo not drawn) the TGI was greater than 100 µM.
For `[O-]c1c[n+](CC[n+]2cc([O-])on2)no1`, the TGI was greater than 100 µM.
With `CO/N=C(/C(=O)OC)c1ccccc1COc1cccc(C(F)(F)F)c1` the TGI was 72.9 µM.
With `COc1cc(/C=C/C(=O)c2c(C)n([O-])c3ccc(Cl)cc3[n+]2=O)cc(OC)c1OC` the GI50 was 82800 nM and the TGI was greater than 100 µM.
Work on `O=Cc1ccc(-c2cccc([N+](=O)[O-])c2)s1` yielded a TGI greater than 100 µM.
In the case of `Cc1ccc(S(=O)(=O)c2c3[nH]c4ccccc4nc3n3c2nc2ccccc23)cc1`, the TGI is reported as greater than 100 µM.
Work on `ClCc1ccc2ccc3ccc(CCl)nc3c2n1` yielded a TGI of 12.6 µM.
For `[C-]#[N+]C(C)(C)C[C@H]1CC(C)C2CCC(C)C3([N+]#[C-])CCC(=C)C1[C@H]23` (stereo partly drawn), the TGI was 37.8 µM.
For `OC(CNC1CCCC1)Cn1c2ccccc2c2ccccc21` (stereo not drawn), the GI50 was 97300 nM and the TGI was greater than 100 µM.
`COc1ccc([C@H](NC(=O)c2ccccc2)[C@@H](O)C(=O)O[C@H]2C[C@@]3(O)C(OC(=O)c4ccccc4)C4[C@](C)(C(=O)[C@H](OC(C)=O)C(=C2C)C3(C)C)[C@@H](O)C[C@H]2OC[C@@]42OC(C)=O)cc1` (stereo partly drawn) gave a TGI greater than 10 µM.
With `COC(=O)/C(=C\c1cn(C(C)=O)c2ccccc12)P(=O)(OC)OC` the TGI was 32 µM.
For `O=CC1C[C@@H](N2C(=O)O[C@@H](c3ccccc3)[C@H]2c2ccccc2)[C@@H]1COCc1ccccc1` (stereo partly drawn), the TGI was 39.9 µM.
Molecule `COCCNC(=O)c1ccc(-c2nc3ccc4[nH]ncc4c3c3c2CCCC3)cc1` has a GI50 of 2010 nM and a TGI of 66.3 µM.
In the case of `COc1ccc(/C=C/C(=O)c2cc3c(N)c(C(=O)Nc4ccccc4)sc3nc2C)cc1`, the GI50 is reported as 337 nM and the TGI is reported as greater than 50 µM.
`O=Cc1ccc(O)c2ncccc12` was tested, and the GI50 was 4870 nM and the TGI was 74.1 µM.
`C=CC(=O)Nc1cccc(C)c1Nc1ncc2cc(-c3c(Cl)c(OC)cc(OC)c3Cl)ccc2n1` showed a GI50 of 5810 nM and a TGI of 47.8 µM.
For `COC(=O)C1(C)CCCC2(C)C3CCC4CC3(C=C4CO)CCC12` (stereo not drawn), the TGI was greater than 100 µM.
In the case of `N/C(COc1ccc(Cl)cc1)=N\NC(=O)c1ccncc1`, the TGI is reported as greater than 100 µM.
For `NCCCCN(Cc1nc2ccccc2[nH]1)[C@H]1CCCc2cccnc21`, the GI50 was 12600 nM and the TGI was greater than 100 µM.
`CN(C)/C=C/c1nnnn1-c1ccc(I)cc1` showed a TGI of 71.4 µM.
With `O=C(NCC(C(=O)OCc1ccccc1)C(=O)OCc1ccccc1)OCc1ccccc1` the TGI was greater than 100 µM.
With `O=C1C(=O)c2ccccc2C(O)=C1CCCCCCCCC1CCCCC1` the TGI was 29.1 µM.
For `N#CC1=C(N)Oc2c(sc3c(F)cccc23)C1c1ccc(F)cc1` (stereo not drawn), the GI50 was 2870 nM and the TGI was 18.7 µM.
For `Cc1cc(C)c(NS(=O)c2cccc(Cl)c2)c(C)c1` (stereo not drawn), the TGI was greater than 100 µM.
Molecule `CC(C)CCc1c(Cl)nc(Cl)nc1Cl` has a TGI of 31.4 µM.
Molecule `O=C(/C=C(\O)c1ccc(Cl)cc1)C(=O)NN=C(c1ccccc1)c1ccccc1` has a TGI greater than 100 µM.
With `Nc1ccccc1OCc1cc(=O)c(OCc2ccccc2)co1` the TGI was greater than 100 µM.
In the case of `COC(=O)/C=C(/C(=O)OC)c1c(C)cc2c(C)cc(C)cc(C)c1-2`, the TGI is reported as greater than 100 µM.
`O/N=C1\CCc2cc3c(cc21)CCC3` gave a TGI greater than 100 µM.
In the case of `CC12CC3CC(C1)CC(N=[N+]=[N-])(C3)C2`, the TGI is reported as greater than 100 µM.
For `O=C(CN1C(=O)c2ccccc2C1=O)C(O)CN1C(=O)c2ccccc2C1=O` (stereo not drawn), the TGI was greater than 100 µM.
Molecule `COc1cc(-c2oc(C=Nc3ccccc3)c([N+](=O)[O-])c2-c2ccc(O)c(OC)c2)ccc1O` has a TGI greater than 100 µM.
`C[CH2][Sn]([CH2]C)([O]C(=O)c1cccc(F)c1)[O][Sn]([CH2]C)([CH2]C)[O]C(=O)c1cccc(F)c1` showed a GI50 of 40700 nM and a TGI greater than 100 µM.
`Cc1ccc(CCCCCOc2ccc(C3=NCCO3)cc2)s1` gave a TGI greater than 100 µM.
Molecule `Cc1ccc(C2=C(c3ccccc3)C(Br)(c3ccccc3)C(c3ccccc3)=C2c2ccc(C)cc2)cc1` has a TGI greater than 100 µM.
For `Fc1ccc(Nc2nnc(-c3ccccn3)s2)cc1`, the TGI was greater than 100 µM.
`CCOC(=O)NC(=O)c1cn(CCN2CCN(C(=O)NCCCCCCNC(=O)N3CCN(CCn4cc(C(=O)NC(=O)OCC)c(=O)n(CCN(CC)CC)c4=O)CC3)CC2)c(=O)n(CCC(CC)CC)c1=O` showed a TGI greater than 100 µM.
In the case of `C[CH2][Sn]([Cl])([Cl])[CH2]C`, the GI50 is reported as greater than 100000 nM and the TGI is reported as greater than 100 µM.
Work on `CN(C)/C=C/c1ccncc1` yielded a TGI greater than 100 µM.
With `COc1cc(C2c3cc4c(cc3[C@@H](NCCCN(C)C)[C@H]3COC(=O)C23)OCO4)cc(OC)c1O` (stereo partly drawn) the GI50 was 1160 nM and 2680 nM and the TGI was 7.16 µM and 16.4 µM.
